# PubChem BioAssay (NCATS)
# This list was built around the results that the source calls inconclusive (neither active nor inactive); the mix of calls is not that of the screen. For some of these results: No potency is given beside an inconclusive call; the fits are too rough. For some of these results: A note “side channel” means that the fit belongs to a control or component signal, not to the main read-out. Calls of active or inactive are those of the source. Unless noted, calls follow the shape of the dose curve; as a rule, active = well fitted curve in the direction sought with a large enough effect; inconclusive = small, poorly fitted or top-dose-only effect, or another doubt; inactive = no such curve, though single readings can be large; an effect the other way counts as inactive or inconclusive.
# How the values were obtained:
# [1] = qHTS Assay for Identification of Small Molecule Antagonists for NFkB Signaling Pathway (AID 895; active = well fitted inhibition curve with a large enough effect in the signal ratio, with a control signal flat, not every such curve was filed as active; inconclusive = small, poorly fitted or top-dose-only effect, or effect the other way, or a change in a side signal; the % refers to the signal ratio; also: potency is read from the fitted curve at half-maximal effect; as to activity change, negative = inhibition: % is scaled to controls: 0 for no effect and ±100 for the full control effect); conditions: NFkB beta-lactamase reporter cells, FRET ratio 460/530, stimulated with 10 pM TNF alpha; activity change, negative = inhibition: at 38.3 µM (top of the series)
# In short: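 NFkB-bla ME-180 cervical carcinoma cells with beta-lactamase reporter under NFkB response element; compounds added, then TNF alpha at 10 pM final (EC50), 5 h at 37 C. LiveBLAzer substrate 2 h, room temperature; emission 460/530 nm at 405 nm excitation.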
# [2] = qHTS Assay for Identification of Small Molecule Antagonists for Thrombopoietin (TPO) Signaling Pathway (AID 918); conditions: TPO-dependent cell signaling reporter, antagonist mode; activity change, negative = inhibition: at 38.5 µM (top of the series); also: nearly all actives have a fitted effect of over 60% in size
# In short: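 Antagonist mode at EC50 TPO (26 pM) in IL-3-free medium; murine Ba/F3 cells with human TPO receptor and GPIIb-promoter luciferase, 24 hrs at 37 C before luminescent detection.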
# [3] = biological target: Muscarinic acetylcholine receptor M1 (Rattus norvegicus) (UniProt P08482); experiment: qHTS Assay for Antagonists of Acetylcholine Muscarinic M1 Receptor: Kinetic Measurement of Intracellular Calcium Response (AID 943); also: potency is read from the fitted curve at half-maximal effect; nearly all actives have a fitted effect of over 75% in size
# Sequence of UniProt P08482 (P08482 whole entry, looked up): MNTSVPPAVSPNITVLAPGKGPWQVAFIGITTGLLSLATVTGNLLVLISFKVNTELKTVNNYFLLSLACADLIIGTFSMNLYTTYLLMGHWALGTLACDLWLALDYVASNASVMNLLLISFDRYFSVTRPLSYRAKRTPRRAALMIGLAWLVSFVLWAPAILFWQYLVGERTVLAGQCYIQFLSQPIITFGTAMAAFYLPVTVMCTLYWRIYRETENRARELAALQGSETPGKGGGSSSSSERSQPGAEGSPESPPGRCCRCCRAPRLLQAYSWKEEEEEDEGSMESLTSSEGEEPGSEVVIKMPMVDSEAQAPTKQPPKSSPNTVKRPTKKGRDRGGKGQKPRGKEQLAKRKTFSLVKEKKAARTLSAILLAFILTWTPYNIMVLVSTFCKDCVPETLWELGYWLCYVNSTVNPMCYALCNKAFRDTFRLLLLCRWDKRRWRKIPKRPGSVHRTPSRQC
# In short: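 Quantitative HTS in CHO-M1 (rat receptor) cells: 10 min compound exposure ahead of 100 nM carbachol, Fluo-4 fluorescence followed 4 min, value expressed as peak-to-basal ratio.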
# [4] = biological target: Muscarinic acetylcholine receptor M1 (Rattus norvegicus) (UniProt P08482); experiment: qHTS Assay for Antagonists of Acetylcholine Muscarinic M1 Receptor: Measurement of IP-One Response (AID 944); also: nearly all actives have a fitted effect of over 75% in size
# [5] = qHTS for differential inhibitors of proliferation of Plasmodium falciparum line 7G8 (AID 1815);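 also: potency is read from the fitted curve at half-maximal effect; parasite growth measured after three days of incubation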
# [6] = qHTS for differential inhibitors of proliferation of Plasmodium falciparum line W2 (AID 1883); conditions: Potency: Plasmodium falciparum W2 proliferation inhibition;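 also: parasites grown with compound for 72 h before lysis and staining; 0% = vehicle wells and -100% = control inhibitor wells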
# [7] = biological target: RecQ-like DNA helicase BLM (Homo sapiens) (UniProt P54132); experiment: qHTS Validation Assay for Inhibitors of Bloom's syndrome helicase (BLM) (AID 2364); also: potency is read from the fitted curve at half-maximal effect
# Sequence of UniProt P54132 (P54132 whole entry, looked up): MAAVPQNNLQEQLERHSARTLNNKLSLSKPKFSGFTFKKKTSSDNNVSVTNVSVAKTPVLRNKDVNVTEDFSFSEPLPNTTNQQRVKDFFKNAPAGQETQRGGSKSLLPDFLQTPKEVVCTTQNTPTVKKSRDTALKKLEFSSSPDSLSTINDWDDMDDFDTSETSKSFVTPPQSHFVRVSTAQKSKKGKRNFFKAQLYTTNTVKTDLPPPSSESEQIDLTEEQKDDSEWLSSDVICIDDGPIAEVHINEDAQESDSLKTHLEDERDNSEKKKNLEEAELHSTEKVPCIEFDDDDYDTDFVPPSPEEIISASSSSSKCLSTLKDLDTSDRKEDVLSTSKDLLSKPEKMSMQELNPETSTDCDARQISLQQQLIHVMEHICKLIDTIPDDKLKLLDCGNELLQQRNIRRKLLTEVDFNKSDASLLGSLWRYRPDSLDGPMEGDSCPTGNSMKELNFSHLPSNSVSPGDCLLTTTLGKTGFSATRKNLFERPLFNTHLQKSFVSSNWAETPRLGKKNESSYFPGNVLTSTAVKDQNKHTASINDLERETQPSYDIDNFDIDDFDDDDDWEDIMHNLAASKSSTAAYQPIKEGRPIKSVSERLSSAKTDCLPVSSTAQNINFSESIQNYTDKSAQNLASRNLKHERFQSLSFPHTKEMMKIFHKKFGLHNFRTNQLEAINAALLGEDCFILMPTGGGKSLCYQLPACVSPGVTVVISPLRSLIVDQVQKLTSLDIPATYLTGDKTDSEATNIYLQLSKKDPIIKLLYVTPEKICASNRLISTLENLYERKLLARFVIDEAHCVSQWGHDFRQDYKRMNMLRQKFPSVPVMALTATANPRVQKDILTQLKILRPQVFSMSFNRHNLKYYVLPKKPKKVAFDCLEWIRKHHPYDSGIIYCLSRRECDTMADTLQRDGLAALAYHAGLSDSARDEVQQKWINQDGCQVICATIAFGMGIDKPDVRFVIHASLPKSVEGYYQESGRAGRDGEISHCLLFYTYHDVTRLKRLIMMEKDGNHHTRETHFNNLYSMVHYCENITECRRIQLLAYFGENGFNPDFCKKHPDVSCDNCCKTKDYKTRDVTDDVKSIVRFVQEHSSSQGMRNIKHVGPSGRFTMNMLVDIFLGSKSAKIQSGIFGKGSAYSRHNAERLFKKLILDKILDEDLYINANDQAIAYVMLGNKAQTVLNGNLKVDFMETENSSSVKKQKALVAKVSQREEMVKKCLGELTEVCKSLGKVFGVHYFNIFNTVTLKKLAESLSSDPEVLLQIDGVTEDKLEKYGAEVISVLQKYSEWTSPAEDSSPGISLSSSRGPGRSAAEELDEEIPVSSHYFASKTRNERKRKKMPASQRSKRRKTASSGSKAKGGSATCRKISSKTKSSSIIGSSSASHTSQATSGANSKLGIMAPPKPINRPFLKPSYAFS
# In short: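 BLM 50 nM in 25 mM Tris-HCl pH 8.0, 5 mM NaCl, 2 mM MgCl2, 1 mM DTT, 0.01% Tween-20, 2.5 ug/ml poly(dI-dC); 15 min cpd preinc, RT. Start: 200 nM forked DNA + 2 mM ATP (final). TAMRA read, 2 reads 2 h apart.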
# [8] = Validation screen for small molecules that induce DNA re-replication in MCF 10A normal breast cells (AID 463097); also: 0% is about no effect; nearly all actives have a fitted effect of over 60% in size
# In short: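 Following 48 hr compound incubation (37 C, 5% CO2), MCF 10A cells receive Hoechst for 40 min at 37 C. Nuclei are then scanned (excitation 405 nm, emission 500-530 nm) for total fluorescence intensity.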
# [9] = qHTS Validation Assay to Find Inhibitors of Chronic Active B-Cell Receptor Signaling (AID 485345; active = well fitted curve in the direction sought with a large enough effect in the main read-out, with a control signal flat, not every such curve was filed as active; inconclusive = small, poorly fitted or top-dose-only effect, or effect the other way, or a change in a side signal; inactive = no such curve, though single readings can be large or run the other way;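 also: 0% = untreated basal cells and 100% = 10 µM MG-132 proteasome inhibitor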); conditions: ABC-DLBCL cells, chronic BCR signaling reporter; activity change: CBG luciferase, at 46.1 µM (top of the series)
# In short: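 TMD8 ABC-DLBCL cells with dox-inducible green luciferase–IκBα fusion and red native luciferase; compounds 46 uM–3 nM, 4 h at 37C with doxycycline in 0.5% FBS IMDM. Green/red ratio normalized to basal and 10 uM MG-132.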
# [10] = biological target: ATP-dependent 6-phosphofructokinase (Trypanosoma brucei brucei) (UniProt O15648); experiment: qHTS Validation Assay to Find Inhibitors of T. brucei phosphofructokinase (AID 485368); conditions: activity change, negative = inhibition: at 57.5 µM (top of the series); also: potency is read from the fitted curve at half-maximal effect
# Sequence of UniProt O15648 (O15648 whole entry, looked up): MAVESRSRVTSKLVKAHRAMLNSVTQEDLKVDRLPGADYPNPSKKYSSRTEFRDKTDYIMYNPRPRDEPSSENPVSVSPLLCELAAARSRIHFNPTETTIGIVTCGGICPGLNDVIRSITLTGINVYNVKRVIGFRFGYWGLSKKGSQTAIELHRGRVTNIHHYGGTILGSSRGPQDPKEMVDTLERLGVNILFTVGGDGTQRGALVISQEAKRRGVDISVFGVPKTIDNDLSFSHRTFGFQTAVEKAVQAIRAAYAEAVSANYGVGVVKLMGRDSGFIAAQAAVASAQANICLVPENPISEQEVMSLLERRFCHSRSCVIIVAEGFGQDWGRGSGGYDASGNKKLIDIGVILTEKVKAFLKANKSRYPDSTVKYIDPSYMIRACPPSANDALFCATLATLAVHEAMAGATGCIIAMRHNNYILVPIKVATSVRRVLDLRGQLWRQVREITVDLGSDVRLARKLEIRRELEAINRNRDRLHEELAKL
# In short: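 qHTS format, up to 57 uM. PFK 1.25 nM; F6P 0.5 mM; ATP 0.1 mM; 5 mM MgCl2, 0.01% Tween20, 0.1% BSA; 0.1 M TEA pH 8.0; 45 min RT; ADP-Glo readout; no-enzyme control = full inhibition.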
# [11] = Quantitative high throughput screen for delayed death inhibitors of the malarial parasite plastid, 96 hour incubation (AID 488745); also: % is scaled to controls: 0 for no effect and ±100 for the full control effect; nearly all actives have a fitted effect of over 70% in size
# In short: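 Two-generation (96 h) exposure of luciferase-reporter P. falciparum in erythrocytes, 2% hematocrit, 0.1% parasitemia final, 37 C, 5% CO2, RPMI 1640 with 0.5% Albumax. Growth inhibition scored by reduced luminescence.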
# [12] = Quantitative high throughput screen for delayed death inhibitors of the malarial parasite plastid, 48 hour incubation (AID 488752); also: % is scaled to controls: 0 for no effect and ±100 for the full control effect; nearly all actives have a fitted effect of over 65% in size
# In short: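 Cultures: infected erythrocytes at final 2% hematocrit and 0.1% parasitemia in Albumax-supplemented RPMI. Parasites express integrated firefly luciferase. Incubation with compound lasts 48 h before luminescent detection of remaining reporter activity.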
# [13] = biological target: D(1A) dopamine receptor (Homo sapiens) (UniProt P21728); experiment: HTS Assay for Allosteric Agonists of the Human D1 Dopamine Receptor: Primary Screen for Potentiators (AID 488982); also: potency is read from the fitted curve at half-maximal effect
# Sequence of UniProt P21728 (P21728 whole entry, looked up): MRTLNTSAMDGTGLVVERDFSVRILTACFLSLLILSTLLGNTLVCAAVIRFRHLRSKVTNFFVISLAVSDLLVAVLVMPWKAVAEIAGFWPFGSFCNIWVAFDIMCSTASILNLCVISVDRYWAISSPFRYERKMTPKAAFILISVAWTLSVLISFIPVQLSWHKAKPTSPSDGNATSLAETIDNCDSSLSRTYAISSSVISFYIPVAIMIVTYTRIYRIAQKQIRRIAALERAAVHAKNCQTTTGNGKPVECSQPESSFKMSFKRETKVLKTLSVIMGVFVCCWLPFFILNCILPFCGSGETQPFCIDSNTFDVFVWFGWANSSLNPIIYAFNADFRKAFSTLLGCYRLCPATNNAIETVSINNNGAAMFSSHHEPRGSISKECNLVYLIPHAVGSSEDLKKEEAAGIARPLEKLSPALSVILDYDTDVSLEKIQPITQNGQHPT
# In short: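 Tetracycline-induced HEK293 T-REx cells force-coupled to calcium signalling were incubated overnight at 30 C and dye-loaded at room temperature. Calcium flux over 180 s after compound addition flagged agonists; a further 180 s read after EC20 dopamine flagged potentiators.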
# [14] = qHTS for Inhibitors of Cell Surface uPA Generation: Validation Assay (AID 493164);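 also: RAW 264.7 macrophage cells exposed to compound for 18 h; 0% is about no effect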
# In short: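 Compounds are titrated over seven points (2.45 nM–38.3 uM final) onto pre-plated RAW 264.7 cells and incubated for 18 h. Retained intracellular ATP, measured with ATP-Lite, indicates blocked lethal factor entry.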
# [15] = biological target: Tyrosine-protein phosphatase non-receptor type substrate 1 (Homo sapiens) + Leukocyte surface antigen CD47 (Homo sapiens) (UniProt P78324+Q08722); experiment: CD47-SIRPalpha protein protein interaction - HTRF assay qHTS validation (AID 1347058; active = well fitted curve in the direction sought with a large enough effect in the signal ratio, not every such curve was filed as active; inconclusive = small, poorly fitted or top-dose-only effect, or effect the other way, or a change in a side signal; inactive = no such curve, though single readings can be large or run the other way; the % refers to the signal ratio; also: potency is read from the fitted curve at half-maximal effect)
# Sequence of UniProt P78324 (P78324 whole entry, looked up, the tested form may be a part): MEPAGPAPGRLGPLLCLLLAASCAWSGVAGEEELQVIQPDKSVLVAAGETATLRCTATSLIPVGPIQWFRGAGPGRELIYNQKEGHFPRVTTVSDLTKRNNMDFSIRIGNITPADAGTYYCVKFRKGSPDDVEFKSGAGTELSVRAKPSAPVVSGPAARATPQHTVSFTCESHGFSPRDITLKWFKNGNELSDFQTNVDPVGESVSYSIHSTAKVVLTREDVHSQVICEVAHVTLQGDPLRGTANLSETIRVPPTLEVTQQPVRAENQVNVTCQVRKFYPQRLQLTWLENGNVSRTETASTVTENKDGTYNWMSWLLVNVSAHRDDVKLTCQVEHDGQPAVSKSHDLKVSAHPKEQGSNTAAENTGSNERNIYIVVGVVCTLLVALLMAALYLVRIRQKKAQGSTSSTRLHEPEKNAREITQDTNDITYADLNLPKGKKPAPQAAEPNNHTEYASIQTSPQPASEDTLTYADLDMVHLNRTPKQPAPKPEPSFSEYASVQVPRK
# Sequence of UniProt P78324 (Q08722 whole entry, looked up, the tested form may be a part): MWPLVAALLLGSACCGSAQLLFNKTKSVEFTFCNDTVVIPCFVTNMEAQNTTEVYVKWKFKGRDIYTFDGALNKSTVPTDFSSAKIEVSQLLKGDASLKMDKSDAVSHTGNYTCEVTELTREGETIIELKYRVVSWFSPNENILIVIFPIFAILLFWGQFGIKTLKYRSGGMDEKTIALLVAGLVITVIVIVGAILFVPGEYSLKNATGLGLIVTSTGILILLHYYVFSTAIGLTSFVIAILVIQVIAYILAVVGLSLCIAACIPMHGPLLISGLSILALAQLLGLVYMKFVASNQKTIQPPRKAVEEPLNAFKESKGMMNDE
# In short: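 Soluble extracellular domains (6His-CD47, Avi-tag-biotinylated SIRPalpha) in PBS pH 7.4 with 0.05% IGEPAL CA-630. Compounds were preincubated 30 min at RT with CD47 and anti-His-Eu, then SIRPalpha and SAV-XL665 were added. TR-FRET 665/615 ratio.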
# Tags tell the direction and shape of the fitted curve or compound fluorescence and quenching.
structure (smiles),measurement,setting,value
Cc1ccc([N+](=O)[O-])cc1S(=O)(=O)N(C)C,Potency,[1],"inconclusive [inhibitor, single point]"
same,"activity change, negative = inhibition",[1],inconclusive: -28.8%
same,"activity change, negative = inhibition",[2],inconclusive: 10.4% [phenotype inactive]
same,Potency,[3],"inconclusive [inhibitor, full curve, poor fit]"
same,Potency,[4],inactive
same,Potency,[5],"inconclusive [inhibitor, single point]"
same,Potency,[6],inactive
same,Potency,[7],"inconclusive [inhibitor, full curve, poor fit]"
same,Potency,[8],inactive
same,activity change,[9],inconclusive: -37.2%
same,Potency,[10],"inconclusive [activator, partial curve, poor fit]"
same,Potency,[11],inactive
same,Potency,[12],inactive
same,Potency,[13],"inconclusive [activator, single point]"
same,Potency,[14],inactive
same,Potency,[15],"inconclusive [side channel, falling, partial curve]"
